These are yes or no findings as the source states them, for the method shown. In cells and extracts the contact can be indirect. Some results given as binding are weak or reduced against the parent protein; the word gives no strength. For part of these data: Where a sequence is shown, tags or fusion partners need not be part of it.

Chains of the proteins cited; added tags and fusions are not shown.
UniProt Q9CUN6: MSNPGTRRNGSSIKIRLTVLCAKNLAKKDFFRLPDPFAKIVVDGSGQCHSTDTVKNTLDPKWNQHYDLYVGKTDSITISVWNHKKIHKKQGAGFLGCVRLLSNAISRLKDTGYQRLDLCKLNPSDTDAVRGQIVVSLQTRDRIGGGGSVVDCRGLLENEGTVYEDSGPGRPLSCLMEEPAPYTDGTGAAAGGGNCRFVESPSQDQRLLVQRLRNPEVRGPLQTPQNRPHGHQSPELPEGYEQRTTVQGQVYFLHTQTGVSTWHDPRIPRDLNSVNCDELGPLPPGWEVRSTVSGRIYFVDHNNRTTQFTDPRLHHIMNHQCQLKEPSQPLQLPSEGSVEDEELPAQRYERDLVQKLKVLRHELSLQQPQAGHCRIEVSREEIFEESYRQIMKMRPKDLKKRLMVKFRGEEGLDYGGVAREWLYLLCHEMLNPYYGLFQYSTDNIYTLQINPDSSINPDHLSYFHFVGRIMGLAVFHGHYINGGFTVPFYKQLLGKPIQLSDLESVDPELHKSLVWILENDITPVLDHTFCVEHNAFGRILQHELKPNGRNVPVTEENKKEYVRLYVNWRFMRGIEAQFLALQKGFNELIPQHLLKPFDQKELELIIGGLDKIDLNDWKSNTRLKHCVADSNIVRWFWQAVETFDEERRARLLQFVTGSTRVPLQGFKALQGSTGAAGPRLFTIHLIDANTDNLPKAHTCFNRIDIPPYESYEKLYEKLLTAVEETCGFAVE
UniProt P37238: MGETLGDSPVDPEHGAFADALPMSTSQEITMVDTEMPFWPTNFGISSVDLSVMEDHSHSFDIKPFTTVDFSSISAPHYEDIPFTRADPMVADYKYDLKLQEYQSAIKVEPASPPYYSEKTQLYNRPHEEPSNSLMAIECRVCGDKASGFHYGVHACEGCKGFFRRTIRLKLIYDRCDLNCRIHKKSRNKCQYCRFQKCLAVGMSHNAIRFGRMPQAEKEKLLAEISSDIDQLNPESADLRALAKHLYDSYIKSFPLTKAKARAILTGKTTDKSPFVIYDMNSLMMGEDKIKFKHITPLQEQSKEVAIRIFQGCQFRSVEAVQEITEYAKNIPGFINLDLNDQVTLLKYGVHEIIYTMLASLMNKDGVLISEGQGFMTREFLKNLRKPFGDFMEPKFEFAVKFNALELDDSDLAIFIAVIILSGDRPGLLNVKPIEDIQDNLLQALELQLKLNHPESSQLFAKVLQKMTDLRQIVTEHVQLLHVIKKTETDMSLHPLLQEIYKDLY

Assay [1] deals with T1, HA-tagged SDCCAG3 deletion mutant lacking the intermediate segment 146-261 (mouse) (UniProt A2AIW0).
T1 sequence: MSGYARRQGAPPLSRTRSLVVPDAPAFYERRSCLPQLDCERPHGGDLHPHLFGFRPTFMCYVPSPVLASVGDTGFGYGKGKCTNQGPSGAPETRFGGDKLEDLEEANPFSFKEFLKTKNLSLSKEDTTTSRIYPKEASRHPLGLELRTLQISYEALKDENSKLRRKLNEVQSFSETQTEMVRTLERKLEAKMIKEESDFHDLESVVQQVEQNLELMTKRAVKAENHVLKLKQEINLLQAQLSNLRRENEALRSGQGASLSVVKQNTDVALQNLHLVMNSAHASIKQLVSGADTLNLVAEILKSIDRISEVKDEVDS
In words: co-IP; HEK293T cells co-transfected with the plasmids (HA-Sdccag3 or its deletion mutants with Flag-Pparγ or Smurf1); HA, FLAG or SMURF1 antibody on protein A/G magnetic beads, 4°C 2 h, washed with PBST (0.5% Tween-20, pH 7.4); Western blot.

Assay [2] addresses T2, HA-tagged SDCCAG3, full-length (mouse) (UniProt A2AIW0).
T2 sequence: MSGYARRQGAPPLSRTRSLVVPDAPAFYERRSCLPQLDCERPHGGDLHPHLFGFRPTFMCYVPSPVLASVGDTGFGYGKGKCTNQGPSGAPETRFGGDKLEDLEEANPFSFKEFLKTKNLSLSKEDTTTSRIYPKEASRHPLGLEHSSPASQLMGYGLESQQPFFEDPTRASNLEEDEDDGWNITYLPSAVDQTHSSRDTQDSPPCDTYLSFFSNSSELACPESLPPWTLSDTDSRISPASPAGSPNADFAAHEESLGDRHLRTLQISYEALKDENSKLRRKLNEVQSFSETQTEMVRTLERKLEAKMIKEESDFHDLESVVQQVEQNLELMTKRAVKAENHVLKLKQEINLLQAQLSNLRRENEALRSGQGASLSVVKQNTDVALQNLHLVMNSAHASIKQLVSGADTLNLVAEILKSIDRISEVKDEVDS
The assay is described as above.

Assay [3] addresses T3, serum-defined colon cancer antigen 3 (SDCCAG3), endogenous in 3T3-L1 adipocytes (mouse (endogenous in 3T3-L1)) (UniProt A2AIW0).
T3 sequence: T2 sequence
In words: co-IP; endogenous proteins in lysate of 3T3-L1 adipocytes (IP lysis buffer); antibody on protein A/G magnetic beads, 4°C 2 h, washed with PBST (0.5% Tween-20, pH 7.4); Western blot. A general note: Immunoblotting shows a protein as a band on a membrane.

The target of assay [4] is SMURF1, exogenously expressed in HEK293T cells (UniProt Q9CUN6). In words: co-IP; HEK293T cells co-transfected with the plasmids (HA-Sdccag3 or its deletion mutants with Flag-Pparγ or Smurf1); HA, FLAG or SMURF1 antibody on protein A/G magnetic beads, 4°C 2 h, washed with PBST (0.5% Tween-20, pH 7.4); Western blot.
Assay [5] has as its target SMAD specific E3 ubiquitin protein ligase 1 (SMURF1), in 3T3-L1 cells (mouse (endogenous in 3T3-L1)) (UniProt Q9CUN6). In words: co-IP; endogenous proteins in lysate of 3T3-L1 adipocytes (IP lysis buffer); antibody on protein A/G magnetic beads, 4°C 2 h, washed with PBST (0.5% Tween-20, pH 7.4); Western blot.

As to “FLAG-tagged PPARγ (from UniProt P37238 1-505)”, the binding result is listed as “no binding” in assay [1] and “binds” in assay [2].

On to “peroxisome proliferator-activated receptor gamma (PPARγ), endogenous in 3T3-L1 adipocytes (from UniProt P37238 1-505)”, for which the binding entry in assay [3] is listed as “binds”.

B1: HA-tagged SDCCAG3 deletion mutant lacking the intermediate segment 146-261 (protein, UniProt A2AIW0)
chain: T1 sequence
Regarding B1, the binding result in assay [4] is “no binding”.

B2: serum-defined colon cancer antigen 3 (SDCCAG3), endogenous in 3T3-L1 adipocytes (protein, UniProt A2AIW0 1-432)
chain: T2 sequence
For the molecule B2, the binding result in assay [5] is given as “binds”.

B3: HA-tagged SDCCAG3, full-length (protein, UniProt A2AIW0 1-432)
chain: T2 sequence
For B3, the binding result in assay [4] is “binds”.

The record behind these values is paper PMC12002885.
